Reference: the supplement of paper PMC8728848
The other results are listed elsewhere or left out.

Experiments:
Experiment in all cases: glycan array binding signal (z-score within array); higher = stronger binding
Conditions in all cases: glycan notation: IUPAC condensed, linker removed
[1] = target: Neu5Ac(a2-3)Gal(b1-4)GlcNAc(b1-3)Gal(b1-4)GlcNAc(b1-3)Gal(b1-4)GlcNAc
How it was run: (§1)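 The Consortium for Functional Glycomics database supplied 3228 glycan arrays, of which those lacking an available protein sequence were dropped. The binding signal, a within-array Z-score, was averaged across arrays of the same protein sequence and across linkers. Negative scores can be read as non-binding.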

[2] = target: Neu5Ac(a2-3)Gal(b1-4)GlcNAc(b1-3)Gal(b1-4)GlcNAc(b1-3)Gal(b1-4)GlcNAc(b1-2)Man(a1-3)[Neu5Ac(a2-3)Gal(b1-4)GlcNAc(b1-3)Gal(b1-4)GlcNAc(b1-3)Gal(b1-4)GlcNAc(b1-2)Man(a1-6)]GalNAc
How it was run: as §1

[3] = target: Neu5Ac(a2-3)Gal(b1-4)GlcNAc(b1-3)Gal(b1-4)GlcNAc(b1-3)GalNAc
How it was run: as §1

[4] = target: Neu5Ac(a2-3)Gal(b1-4)GlcNAc(b1-3)Gal(b1-4)GlcNAc(b1-3)[Neu5Ac(a2-3)Gal(b1-4)GlcNAc(b1-3)Gal(b1-4)GlcNAc(b1-6)]GalNAc
How it was run: as §1

[5] = target: Neu5Ac(a2-3)Gal(b1-4)GlcNAc(b1-3)Gal(b1-4)GlcNAc(b1-6)[Gal(b1-3)]GalNAc
How it was run: as §1

[6] = target: Neu5Ac(a2-3)Gal(b1-4)GlcNAc(b1-3)Gal(b1-4)[Fuc(a1-3)]GlcNAc
How it was run: as §1

[7] = target: Neu5Ac(a2-3)Gal(b1-4)GlcNAc(b1-3)GalNAc
How it was run: as §1

[8] = target: Neu5Ac(a2-3)Gal(b1-4)GlcNAc(b1-3)[Neu5Ac(a2-3)Gal(b1-4)GlcNAc(b1-6)]GalNAc
How it was run: as §1

[9] = target: Neu5Ac(a2-3)Gal(b1-4)GlcNAc(b1-6)GalNAc
How it was run: as §1

[10] = target: Neu5Ac(a2-3)Gal(b1-4)GlcNAc(b1-6)[Gal(b1-3)]GalNAc
How it was run: as §1

[11] = target: Neu5Ac(a2-3)Gal(b1-4)GlcNAc(b1-6)[Neu5Ac(a2-3)Gal(b1-3)]GalNAc
How it was run: as §1

[12] = target: Neu5Ac(a2-3)Gal(b1-4)GlcNAc6S
How it was run: as §1

[13] = target: Neu5Ac(a2-3)Gal(b1-4)[Fuc(a1-3)]GlcNAc
How it was run: as §1

[14] = target: Neu5Ac(a2-3)Gal(b1-4)[Fuc(a1-3)]GlcNAc(b1-2)Man
How it was run: as §1

[15] = target: Neu5Ac(a2-3)Gal(b1-4)[Fuc(a1-3)]GlcNAc(b1-3)Gal
How it was run: as §1

[16] = target: Neu5Ac(a2-3)Gal(b1-4)[Fuc(a1-3)]GlcNAc(b1-3)Gal(b1-4)GlcNAc
How it was run: as §1

[17] = target: Neu5Ac(a2-3)Gal(b1-4)[Fuc(a1-3)]GlcNAc(b1-3)Gal(b1-4)[Fuc(a1-3)]GlcNAc(b1-3)Gal(b1-4)[Fuc(a1-3)]GlcNAc
How it was run: as §1

[18] = target: Neu5Ac(a2-3)Gal(b1-4)[Fuc(a1-3)]GlcNAc(b1-3)GalNAc
How it was run: as §1

[19] = target: Neu5Ac(a2-3)Gal(b1-4)[Fuc(a1-3)]GlcNAc(b1-6)[Gal(b1-3)]GalNAc
How it was run: as §1

[20] = target: Neu5Ac(a2-3)Gal(b1-4)[Fuc(a1-3)]GlcNAc(b1-6)[Neu5Ac(a2-3)Gal(b1-3)]GalNAc
How it was run: as §1

[21] = target: Neu5Ac(a2-3)Gal(b1-4)[Fuc(a1-3)]GlcNAc6S
How it was run: as §1

[22] = target: Neu5Ac(a2-3)Gal6S(b1-4)GlcNAc
How it was run: as §1

[23] = target: Neu5Ac(a2-3)Gal6S(b1-4)[Fuc(a1-3)]GlcNAc
How it was run: as §1

Neu5Ac(a2-3)GalNAc = target: Neu5Ac(a2-3)GalNAc
How it was run: as §1

[24] = target: Neu5Ac(a2-3)GalNAc(b1-4)GlcNAc
How it was run: as §1

[25] = target: Neu5Ac(a2-3)[GalNAc(b1-4)]Gal(b1-4)Glc
How it was run: as §1

[26] = target: Neu5Ac(a2-3)[GalNAc(b1-4)]Gal(b1-4)GlcNAc
How it was run: as §1

[27] = target: Neu5Ac(a2-3)[GalNAc(b1-4)]Gal(b1-4)GlcNAc(b1-3)GalNAc
How it was run: as §1

[28] = target: Neu5Ac(a2-3)[Neu5Ac(a2-6)]GalNAc
How it was run: as §1

Neu5Ac(a2-6)Gal = target: Neu5Ac(a2-6)Gal
How it was run: as §1

[29] = target: Neu5Ac(a2-6)Gal(b1-3)GlcNAc(b1-3)[Gal(b1-4)GlcNAc(b1-6)]Gal(b1-4)Glc
How it was run: as §1

Neu5Ac(a2-6)Gal(b1-4)Glc = target: Neu5Ac(a2-6)Gal(b1-4)Glc
How it was run: as §1

[30] = target: Neu5Ac(a2-6)Gal(b1-4)GlcNAc
How it was run: as §1

[31] = target: Neu5Ac(a2-6)Gal(b1-4)GlcNAc(b1-2)Man
How it was run: as §1

[32] = target: Neu5Ac(a2-6)Gal(b1-4)GlcNAc(b1-2)Man(a1-3)Man(b1-4)GlcNAc(b1-4)GlcNAc
How it was run: as §1

[33] = target: Neu5Ac(a2-6)Gal(b1-4)GlcNAc(b1-2)Man(a1-3)[Gal(b1-4)GlcNAc(b1-2)Man(a1-6)]Man(b1-4)GlcNAc(b1-4)GlcNAc
How it was run: as §1

[34] = target: Neu5Ac(a2-6)Gal(b1-4)GlcNAc(b1-2)Man(a1-3)[GlcNAc(b1-2)Man(a1-6)]Man(b1-4)GlcNAc(b1-4)GlcNAc
How it was run: as §1

[35] = target: Neu5Ac(a2-6)Gal(b1-4)GlcNAc(b1-2)Man(a1-3)[GlcNAc(b1-4)][Neu5Ac(a2-6)Gal(b1-4)GlcNAc(b1-2)Man(a1-6)]Man(b1-4)GlcNAc(b1-4)GlcNAc
How it was run: as §1

B1: Cohesin-marm-DC-ASGPR-CRD (protein)
chain: LDITSHHHHHHDDLDAVRIKVDTVNAKPGDTVRIPVRFSGIPSKGIANCDFVYSYDPNVLEIIEIEPGDIIVDPNPDKSFDTAVYPDRKIIVFLFAEDSGTGAYAITKDGVFATIVAKVKEGAPNGLSVIKFVEVGGFANNDLVEQKTQFFDGGVNVGDTTEPATPTTPVTTPTTTDDLDAASCPINWVEHQGSCYWFSRSGKTWPEAERYCQLENTHLVVINSREEQNFVQAHLGSAYTWMGLSDPEGVWKWVDGTDYSSGFQNWKPGQPDDWQGHGLGGGEDCAHFHPDGRWNDDVCQRSYHWVCEAGLTQASQDSH
glycan array binding signal (z-score) [1]: -0.457
glycan array binding signal (z-score) [2]: 0.247
glycan array binding signal (z-score) [3]: -0.389
glycan array binding signal (z-score) [4]: -0.336
glycan array binding signal (z-score) [5]: -0.346
glycan array binding signal (z-score) [6]: -0.45
glycan array binding signal (z-score) [7]: -0.455
glycan array binding signal (z-score) [8]: -0.447
glycan array binding signal (z-score) [9]: 2.74
glycan array binding signal (z-score) [10]: -0.422
glycan array binding signal (z-score) [11]: -0.459
glycan array binding signal (z-score) [12]: -0.398
glycan array binding signal (z-score) [13]: -0.441
glycan array binding signal (z-score) [14]: -0.386
glycan array binding signal (z-score) [15]: -0.446
glycan array binding signal (z-score) [16]: -0.388
glycan array binding signal (z-score) [17]: -0.442
glycan array binding signal (z-score) [18]: -0.237
glycan array binding signal (z-score) [19]: -0.428
glycan array binding signal (z-score) [20]: -0.275
glycan array binding signal (z-score) [21]: -0.434
glycan array binding signal (z-score) [22]: -0.447
glycan array binding signal (z-score) [23]: -0.45
glycan array binding signal (z-score) (Neu5Ac(a2-3)GalNAc): -0.435
glycan array binding signal (z-score) [24]: -0.447
glycan array binding signal (z-score) [25]: 2.68
glycan array binding signal (z-score) [26]: 2.36
glycan array binding signal (z-score) [27]: 2.56
glycan array binding signal (z-score) [28]: -0.395
glycan array binding signal (z-score) (Neu5Ac(a2-6)Gal): -0.375
glycan array binding signal (z-score) [29]: -0.452
glycan array binding signal (z-score) (Neu5Ac(a2-6)Gal(b1-4)Glc): -0.421
glycan array binding signal (z-score) [30]: -0.453
glycan array binding signal (z-score) [31]: -0.448
glycan array binding signal (z-score) [32]: -0.442
glycan array binding signal (z-score) [33]: -0.392
glycan array binding signal (z-score) [34]: -0.448
glycan array binding signal (z-score) [35]: -0.445
